The other results are listed elsewhere or left out.
tested on: PfAP2-HC AP2 domain (GST-tagged); assay: gcPBM binding intensity (ln(normalized median fluorescence intensity)); higher = stronger DNA binding
In short: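 The binding buffer was 1× PBS containing 1% milk, 0.2 mg/ml BSA, 0.5% salmon testes DNA and 0.03% Triton X-100. In it, GST-tagged P. falciparum DNA-binding domains expressed in E. coli were applied for 1 h to an Agilent 4 × 180k array of primer-extended double-stranded 36-bp intergenic genomic probes plus negative controls. Binding intensity, read with Alexa488 anti-GST antibody and a 488 nm scan, is the highest Masliner-normalised natural-log median intensity across replicate spots of either probe orientation.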

Sequence	gcPBM binding intensity (ln)
TTGTACGCAAAAAAAAAAAAAAAAAAATTAAAATTT [TGCATGCA_negctrl_site586]	9.07
ATATTAGTAACACAGACACACAAAAAAAAAAAAAAA [CACACA_site2176]	9.49
AGGAAAATACCTTAATGTACATAGAAAAGTAACATT [XGTACX_site8011]	9.65
TTTTTTATTATCAAAACATGCATTTTTTAAATGGAA [TGCATGCA_site557]	9.28
TAATGAAATATACAGAGTACATTCTGTATATAGGAT [XGTACX_site7691]	9.77
TACTCAAAAATTAATTAGCATAATATATATAAAAAT [GTGCAC_negctrl_site613]	9.29
GCATAAGAAAATAATTGTACAATTTACATACATAAA [XGTACX_site8286]	9.63
TATATATGTATATATATAAATATATATATATATATA [TGCATGCA_negctrl_site605]	9.7
TATAAATATATATACACACACACATTAATACATATA [CACACA_site3488]	10.8
TTAAGAAGTTCTAAATGTACATACATAACCACGTTA [XGTACX_site7514]	9.47
GGGAAATATTGAAACACACACGAACGCACGTATTTC [CACACA_site6258]	9.91
ATAATATTTTCTTCTTATTGAATGCTTTAAATTTAC [CACACA_negctrl_site1273]	9.56
ACAAATAAGTTTTGTAGTACTGTGTATATATATATA [XGTACX_site6901]	9.7
TTAAACCGTGGGAGCACACACACACCCCCACCCATA [CACACA_site331]	10.3
AAAGGTAAGCAGAATAGTACAGAAGAAAAAATATTT [XGTACX_site2941]	9.71
TTTTGTTTGTTCGTGACTACATTATGTTGTAAATAC [CACACA_negctrl_site604]	9.66
CAACATTTGAGACACACACACATACAAACAAACAAA [CACACA_site7538]	11.2
TATCCTATAAATAATACATGCATATATATATATATT [TGCATGCA_site638]	9.76
AAATAGTATATAATATGTACATACATAAAAATGTAT [XGTACX_site3524]	9.84

Sequence	gcPBM binding intensity (ln)
ACCTATGTATATTATACACACTCCAAACTATTATTT [CACACA_site1817]	9.96
TATAAATATTTATAAACACACAAATATATATATTTA [CACACA_site27]	9.65
GCACGCTGTATGAATGCACACATTCATAGAATTGCT [CACACA_site8852]	9.67
ATCAAAATGTTAAAGATACACACCTAACAAACACAA [CACACA_site955]	10.5
TTATATATATAGAAGTGTACAAAATTTCCTAGACCT [XGTACX_site3900]	9.72
TATCGACATTTCATTTGTACATATATACATATATTT [XGTACX_site3346]	9.81
AAGAAAATTAAATTAACACACATAAATATGTAAATA [CACACA_site6882]	10.1
CCAATAATATATAGAAGTACAGAAAAAAAAAAAAAA [XGTACX_site2049]	9.4
CCCTCTTCTCTCATATCACACATGTCATCCTTATCC [CACACA_site5078]	9.87
GAAAAATGAAGAGAACAAAATTTTATGATATATATA [GTGCAC_negctrl_site231]	9.62
TTTCATAAATAAATATGTACATAATTAATAATAAAT [XGTACX_site5882]	9.66
CCTTGAACCCCACTAACACACACACCCACGCTCAGA [CACACA_site8976]	10.2
ATTTCACAGAAACACACACACAATATATTTCCTTTT [CACACA_site3904]	10.4
ATATGTATATATATTTGTACGTAAAATGAAATCTAA [XGTACX_site213]	9.82
TATACATAGATATATACACACATATATTTATATACA [CACACA_site6328]	9.92
ATTACAAAAAAAAAAAAAAAAAAAAAAAAAAAAAAA [CACACA_negctrl_site448]	9.04
ACTTGTAAGAAACACACACACACACCGATATATATA [CACACA_site4594]	11.2
ATTATTTTTTTTCTTATACACACCATGCATCAAACT [CACACA_site2128]	9.79
AAAAATAAGAAAAAGTGTACTTTATTATGTATATAT [XGTACX_site2305]	9.67

Sequence	gcPBM binding intensity (ln)
AAAAAAAAAAAAAAAACACACATTTAATGAACTTAT [CACACA_site1276]	9.72
ATATATAATCATATGTGTACATATATATTAATTTAA [XGTACX_site2839]	9.67
AATTCAAAATAAAAATGTACATATATCAGAATATGG [XGTACX_site42]	9.66
AAGATACACTTAATCGCACACGAAATTATATATTTA [CACACA_site3063]	9.72
TTTTTTTTTTATGTTATTAAAAAAAAAAAAAATTAA [CACACA_negctrl_site222]	9.03
TATAACATTGTATGAATGCACTTTTATCTATTTTAA [GTGCAC_site9903]	9.73
ATGAGAAAATATATTATTTTATATGAACAAGTTTAT [XGTACX_negctrl_site372]	9.5
AATAATGTATGAAATAAACACACAAGTAAGTACATA [CACACA_site8776]	10.3
ATAATTTTAAATAAATGTACATATAGATGTGTGTAA [XGTACX_site3958]	9.82
AAATGTTATATATAATGTACTTGTAAGAACGTTCCT [XGTACX_site2840]	9.58
AAAATTATATATTATAGTACATAAAATATTGATAAA [XGTACX_site8988]	9.67
TGCGACCATAATAAAGCACACAATGAAAAATATATA [CACACA_site256]	9.95
TACAAATTAATATGTACACACAAATATATATATATA [CACACA_site1977]	9.81
ATAATATGAAACTAAGGTACACATATATTAACAGAG [XGTACX_site3842]	9.91
TGTGCTCAAAATTATGCACACACCTAAAATTAATTT [CACACA_site8950]	9.78
TAAGTATACTCATACACACACACACTAGAAAAAAAA [CACACA_site4397]	10.4
AGAGATACATAAAAAAGTACATATAAAATTTAGGAA [XGTACX_site7201]	9.76
TATTTATTTATATACACACACTTGTATAAAAAATGT [CACACA_site7048]	9.92
